Experimental data: PubChem BioAssay AID504332 (National Center for Advancing Translational Sciences (NCATS), 2011)
Among all 350,000 compounds or so, about 31,000 (8.9%) were called active. The shares of active, inactive and inconclusive entries below differ from those in the screen. The call rests on the fitted dose curve; in most records, active means well fitted inhibition curve with a large enough effect; inconclusive means small, poorly fitted or top-dose-only effect; inactive means no such curve, though single readings can be large or run the other way. Potencies beside an inconclusive call are fits to weak or partial responses and may not hold up. Some structures have more than one record in an assay (separate samples or runs), and their calls can disagree.

target: Histone-lysine N-methyltransferase EHMT2 (Homo sapiens) (UniProt Q96KQ7); experiment: qHTS Assay for Inhibitors of Histone Lysine Methyltransferase G9a; settings: G9a H3K9 monomethylation, AlphaScreen, 2 h; activity, negative = inhibition: at 59 µM (top of the series) unless noted; further: nearly all actives have a fitted effect of over 75% in size
Procedure, shortened: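 Signal arises when biotinylated H3K9 peptide, once monomethylated, bridges streptavidin donor and antibody-captured acceptor beads. Enzyme at 20 nM was preincubated 15 min with test compounds; peptide 500 nM and SAM 20 uM then reacted for 2 h.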
On the % scale 0 is the no-effect control and ±100 the full control effect; potency means the concentration at half of the fitted maximal effect; tags describe the fitted curve by direction and shape.

Sequence of UniProt Q96KQ7 (Q96KQ7 whole entry, looked up): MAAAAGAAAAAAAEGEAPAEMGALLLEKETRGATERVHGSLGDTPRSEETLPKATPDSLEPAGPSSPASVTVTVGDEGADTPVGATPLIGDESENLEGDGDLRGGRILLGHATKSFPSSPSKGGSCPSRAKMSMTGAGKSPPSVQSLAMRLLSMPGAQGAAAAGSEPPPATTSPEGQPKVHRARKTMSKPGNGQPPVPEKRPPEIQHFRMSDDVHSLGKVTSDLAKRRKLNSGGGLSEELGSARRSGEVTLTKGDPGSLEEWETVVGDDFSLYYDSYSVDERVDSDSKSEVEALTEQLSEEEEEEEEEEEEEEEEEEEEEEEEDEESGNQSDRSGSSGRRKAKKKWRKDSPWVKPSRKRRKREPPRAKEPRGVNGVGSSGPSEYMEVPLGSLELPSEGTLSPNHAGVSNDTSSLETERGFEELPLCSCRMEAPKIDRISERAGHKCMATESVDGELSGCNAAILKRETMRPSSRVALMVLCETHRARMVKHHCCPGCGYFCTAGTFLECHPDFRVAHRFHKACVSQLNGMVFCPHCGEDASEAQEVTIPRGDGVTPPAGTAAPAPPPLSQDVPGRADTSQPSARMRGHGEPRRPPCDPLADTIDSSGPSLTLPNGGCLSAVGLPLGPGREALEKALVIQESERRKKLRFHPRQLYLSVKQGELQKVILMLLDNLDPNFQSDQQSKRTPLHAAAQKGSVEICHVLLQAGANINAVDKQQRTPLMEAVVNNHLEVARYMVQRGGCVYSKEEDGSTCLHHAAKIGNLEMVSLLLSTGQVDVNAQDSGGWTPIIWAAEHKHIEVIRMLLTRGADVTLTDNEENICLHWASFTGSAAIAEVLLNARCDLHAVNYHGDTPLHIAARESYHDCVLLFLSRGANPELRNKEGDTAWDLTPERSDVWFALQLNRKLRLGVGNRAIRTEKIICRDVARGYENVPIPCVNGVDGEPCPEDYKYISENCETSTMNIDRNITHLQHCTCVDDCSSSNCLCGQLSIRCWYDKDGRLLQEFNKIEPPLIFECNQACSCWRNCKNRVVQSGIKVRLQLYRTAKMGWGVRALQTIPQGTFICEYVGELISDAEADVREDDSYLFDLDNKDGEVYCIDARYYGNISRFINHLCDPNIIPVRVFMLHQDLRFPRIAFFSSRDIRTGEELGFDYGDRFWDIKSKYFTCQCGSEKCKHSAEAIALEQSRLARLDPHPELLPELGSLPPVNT

Row | Structure (SMILES) | Potency | activity, negative = inhibition
1 | CCc1ccc(C(=O)NNC(=S)Nc2ccc(S(N)(=O)=O)cc2)s1 | active: 7.94 µM | –
2 | S=C(NCc1ccco1)Nc1ccc(Cl)cn1 | active: 8.91 µM | –
3 | CCCCSCCCNC(=O)Nc1cccc(OC)c1 | inconclusive: 89.1 µM [inhibitor, partial curve, poor fit] | –
4 | CN1CCN(CCCc2c3c(cc4c2CCC4)CCC3)CC1 | inconclusive: 10 µM [inhibitor, partial curve, poor fit] | –
5 | Cc1cccc(C)c1OCC(O)CNC(C)C (configuration not stated) | inconclusive: 8.91 µM [inhibitor, partial curve] | –
6 | COc1ccc(Nc2nc(-c3c(C)nc4ncccn34)cs2)cc1 | active: 17.8 µM | –
7 | C=CCN1CCc2c(cc(O)c(O)c2Cl)C(c2ccccc2)C1 (configuration not stated) | active: 7.08 µM | –
8 | NC(=O)c1c(NC(=O)CS(=O)(=O)c2ccc(Cl)cc2)sc2c1CCCC2 | – | inactive: 2.89%
9 | O=[N+]([O-])c1ccc(/C=C/C2=NN(c3ccccc3)C(c3ccco3)C2)o1 (configuration not stated) | active: 31.6 µM | –
10 | CCOc1ccccc1-n1c(SCC(N)=O)nnc1-c1ccccc1 | inconclusive: 50.1 µM [inhibitor, partial curve] | –
11 | COc1ccc(NC(=O)C2CCCN(S(=O)(=O)c3ccc4[nH]c(=O)ccc4c3)C2)cc1Cl (configuration not stated) | – | inactive: -37.2%
12 | C=CCc1ccc(OCCOCCOc2cccc3ccc(C)nc23)c(OC)c1 | active: 3.55 µM | –
13 | CCOC(=O)N1CCc2c(sc3c2c(=O)n(CCc2ccccc2)c(=O)n3CC(=O)Nc2ccccc2C)C1 | – | inactive: 8.15%
14 | CC(=O)N1CCCc2cc(S(=O)(=O)Nc3ccc4c(c3)OCO4)ccc21 | active: 50.1 µM | –
15 | O=C(CC(=O)c1ccccc1)Nc1ccc(Cl)cc1 | – | inactive: 6.47% [at 102 µM]
16 | CSC1=C(C#N)C(C)CC(=O)N1 (configuration not stated) | inconclusive: 89.1 µM [inhibitor, single point] | –
17 | CC(=O)Oc1ccc(C(=O)Nc2ccc(C3(C#N)CCCC3)cc2)cc1 | inconclusive: 56.2 µM [inhibitor, single point] | –
18 | Oc1ccccc1-c1nc(NC2CCCC2)c2ccccc2n1 | – | inactive: -23.4% [at 2.33 µM]
19 | COCCCNC(=O)CC(NCCCOC)C(=O)O (configuration not stated) | inconclusive: 31.6 µM [inhibitor, single point] | –
20 | C=C(C)C1CC=C(C)/C(=N/NC(=O)c2ccccc2[N+](=O)[O-])C1 (configuration not stated) | inconclusive: 0.282 µM [inhibitor, partial curve, poor fit] | –
21 | CCN(CC(=O)Nc1ccc(NC(C)=O)cc1)C(=O)/C=C/c1ccc(C)o1 | inconclusive: 39.8 µM [inhibitor, single point] | –
22 | Cc1ccc(S(=O)(=O)N2CCN(CC(=O)NC3CCCc4ccccc43)CC2)cc1C (configuration not stated) | inconclusive: 31.6 µM [inhibitor, single point] | –
23 | Cc1ccc(S(=O)(=O)CCC(=O)c2ccc(F)cc2)cc1 | – | inactive: 126% [at 102 µM]
24 | CCc1ccc(N2CC(C(=O)Nc3nc4ccc(S(C)(=O)=O)cc4s3)CC2=O)cc1 (configuration not stated) | active: 39.8 µM | –

Row | Structure (SMILES) | Potency | activity, negative = inhibition
25 | COc1cccc(-c2nccc(NCc3ccccc3)n2)c1 | – | inactive: 13% [at 0.501 µM]
26 | O=C(c1ccc(Br)o1)N1N=C(c2ccc(Cl)cc2)CC1c1ccco1 (configuration not stated) | active: 50.1 µM | –
27 | CCN(c1cccc(C)c1)C(C(=O)Nc1ccc(OC)cc1)c1cc2c(cc1[N+](=O)[O-])OCO2 (configuration not stated) | inconclusive: 20 µM [inhibitor, partial curve, poor fit] | –
28 | C[C@@H]1CCC2[C@@H](C)[C@@H](O)O[C@@H]3O[C@@]4(C)CC[C@@H]1[C@@]23OO4 (some centres not stated) | – | inactive: 25.3%
29 | COc1cc(C(=O)NCc2nc(C)cs2)ccc1OC1CCN(C(C)=O)CC1 | inconclusive: 79.4 µM [inhibitor, single point] | –
30 | CC(C)Cn1c(-c2ccccc2)nc2ccccc2c1=O | – | inactive: 82.2%
31 | CCOC(=O)CCCCC(=O)c1[nH]c(=O)[nH]c1C[n+]1ccccc1 | inconclusive: 44.7 µM [inhibitor, partial curve, poor fit] | –
32 | O=C(N/N=C/c1cccs1)c1cc(-c2ccc(Cl)s2)[nH]n1 | active: 50.1 µM | –
33 | CCCC(=O)N1c2nc(-c3ccco3)nn2C2(CCCCC2)[C@@H]2CCCC[C@@H]21 | inconclusive: 28.2 µM [inhibitor, single point] | –
34 | NC(=S)N/N=C/c1ccc(OC(=O)c2cccnc2)cc1 | – | inactive: 1.41%
35 | CN1/C(=C\C(=O)COC(=O)c2ccc([N+](=O)[O-])o2)C(C)(C)c2ccccc21 | active: 20 µM | –
36 | NS(=O)(=O)c1cc(C(=O)N2CCc3ccccc32)c(Cl)cc1Cl | – | inactive: -27.2%
37 | Cc1ccc(-c2noc(-c3ccccc3OCC(=O)Nc3ccccc3[N+](=O)[O-])n2)cc1 | inconclusive: 15.8 µM [inhibitor, partial curve, poor fit] | –
38 | CC12CCC(=O)N1C(C(=O)Nc1nc3ccc(F)cc3s1)CS2 (configuration not stated) | – | inactive: -5.93%
39 | CCN1C(=O)C(Cc2nc3ccccc3c(=O)n2-c2cccc(C)c2)c2ccccc21 (configuration not stated) | inconclusive: 22.4 µM [inhibitor, partial curve, poor fit] | –
40 | CC1=C(C(=O)O)N2C(=O)[C@@H](NC(=O)C(N)C3=CCC=CC3)[C@H]2SC1 (some centres not stated) | active: 11.9 µM | –
41 | O=C(Cc1c(C(=O)O)[nH]c2ccccc12)Nc1ccc2c(c1)OCO2 | – | inactive: -4.62% [at 2.33 µM]
42 | CN(C)CCOC(=O)C12CC3CC(C1)CC(C(=O)OCCN(C)C)(C3)C2 | active: 56.2 µM | –
43 | O=C(C1=C[C@H](c2ccc(C(F)(F)F)cc2)C[C@H](OCCCCO)O1)N1CCN(Cc2ccc3c(c2)OCO3)CC1 | – | inconclusive: -79.2% [inhibitor]
44 | Cc1cccc(N(C)C(=O)Cn2cnc3nc4c(cc3c2=O)CCCC4)c1 | – | inactive: 0.368%
45 | CCC(NC(=O)NNC(N)=S)(C(F)(F)F)C(F)(F)F | inconclusive: 2.82 µM [inhibitor, partial curve, poor fit] | –
46 | CCC(Sc1nc2ccccc2s1)C(=O)Nc1cc(C)on1 (configuration not stated) | – | inactive: 13%
47 | CCN(CC(=O)Nc1ccc(NC(C)=O)cc1)C(=O)CSc1ncnc2sc(C)c(C)c12 | active: 12.6 µM | –
48 | Cc1ccccc1NC(=O)CSc1nccn1C | – | inactive: 8.03%

Row | Structure (SMILES) | Potency | activity, negative = inhibition
49 | Cc1ccc(C(=O)CN2C(=O)NC3(CCOc4ccccc43)C2=O)s1 (configuration not stated) | – | inactive: -5.02% [at 2.33 µM]
50 | CCCCCNC(=O)C(C)NS(=O)(=O)c1ccc(OC)cc1 (configuration not stated) | inconclusive: 22.4 µM [inhibitor, single point] | –
51 | Cc1ccc(NC(=O)CNCc2ccc(Cl)cc2Cl)cc1S(=O)(=O)N(C)C | active: 10 µM | –
52 | O=S(=O)(NCC(c1ccco1)S(=O)(=O)c1cccs1)c1ccccc1 (configuration not stated) | inconclusive: 3.16 µM [inhibitor, partial curve, poor fit] | –
53 | Cc1ccc(OC(C)C(=O)N2CCN(CCc3ccccn3)CC2)cc1C (configuration not stated) | – | inactive: -5.95%
54 | Cc1cccc(-c2csc(N)c2C(=O)OC(C)C)c1 | inconclusive: 39.8 µM [inhibitor, single point] | –
55 | CNc1nc(C(=O)O)nc(N2CCOCC2)n1 | active: 5.62 µM | –
56 | C=C(C)C(=O)Nc1cccc(C(C)=O)c1 | inconclusive: 89.1 µM [inhibitor, single point] | –
57 | Cc1c(C(=O)N/N=C/c2ccccn2)nnn1-c1nonc1N | inconclusive: 1.26 µM [inhibitor, full curve, poor fit] | –
58 | COc1ccc([N+](=O)[O-])cc1NC(=O)Nc1ccc(OC)c(OC)c1 | inconclusive: 50.1 µM [inhibitor, partial curve, poor fit] | –
59 | COc1cccc(/C(O)=C/c2nc3ccc(C(=O)NCCc4cccc(C)c4)cc3[nH]c2=O)c1 | inconclusive: 89.1 µM [inhibitor, single point] | –
60 | O=C(NCc1ccccn1)c1cc(-c2ccc(-c3ccccc3)cc2)nc2ccccc12 | active: 3.16 µM | –
61 | CCCN1C(=O)/C(=C/c2ccc(C)o2)NC1=S | active: 7.94 µM | –
62 | Cc1cc(C(=O)OCC(=O)Nc2ccc(S(=O)(=O)N3CCOCC3)cc2)c(C)o1 | inconclusive: 10 µM [inhibitor, single point] | –
63 | C#CCOCCOCCOCCNc1nc(N2CCN(C(=O)[C@H](CCC(=O)O)n3cc(C(N)CO)nn3)CC2)nc(N2CCN(C(=O)[C@H](CCCCN)n3cc(C(N)CC(C)C)nn3)CC2)n1 (some centres not stated) | – | inconclusive: -108% [inhibitor] [at 12.7 µM]
64 | Cc1cc(Cl)ccc1NC(=O)C1CCCN(c2nnc(C)c3c(C)n(-c4ccccc4)nc23)C1 (configuration not stated) | inconclusive: 7.08 µM [inhibitor, partial curve, poor fit] | –
65 | COc1ccc2c(C)cc(SCC(=O)Nc3c(C)n(C)n(-c4ccccc4)c3=O)nc2c1 | – | inactive: -2.66% [at 102 µM]
66 | COC(=O)c1cc(C(=O)c2cc(F)ccc2O)cn2c(=O)c3c(C)c(C)sc3nc12 | inconclusive: 31.6 µM [inhibitor, full curve] | –
67 | COc1cccc(OCCCN2CCN(S(=O)(=O)c3ccc(NC(C)=O)cc3)CC2)c1 | inconclusive: 89.1 µM [inhibitor, partial curve, poor fit] | –
68 | Cc1cccc(-c2nnc(SCC3CNC(=O)O3)n2-c2ccc(Cl)cc2)c1 (configuration not stated) | inconclusive: 25.1 µM [inhibitor, single point] | –
69 | COc1ccc(NC(=O)CC2C(=O)N(CCc3ccccc3)C(=S)N2Cc2cccnc2)cc1 (configuration not stated) | inconclusive: 89.1 µM [inhibitor, single point] | –
70 | CCc1ccc(CNC(=O)c2ccc(Cn3c(=O)c4cccn4c4cccnc43)cc2)cc1 | – | inactive: 2.06%
71 | Brc1ccc(-c2nn3c(-c4ccco4)nnc3s2)o1 | active: 14.1 µM | –
72 | COc1cc(NC(=O)c2ccc3c(SCC(=O)O)c4c(nc3c2)CCCC4)cc(OC)c1OC | inconclusive: 4.47 µM [inhibitor, full curve, poor fit] | –
